This is one part of the list.
test system: T1, Caupolican (Caup) homeodomain DNA-binding domain; test: PBM E-score (8-mer, recovered from the published 9-mer minima) (E-score (dimensionless, -0.5 to 0.5)); Drosophila protein; higher = stronger relative binding preference, active = 0.31 or more
T1 sequence: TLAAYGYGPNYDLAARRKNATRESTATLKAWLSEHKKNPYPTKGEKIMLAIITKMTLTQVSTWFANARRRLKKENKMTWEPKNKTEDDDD
How it was run: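 Caup's homeodomain DNA-binding domain (residues 214-303) was produced by in vitro transcription and translation and applied at 100 nM to custom-designed protein binding microarrays. Each value is an enrichment score giving relative binding preference for a short DNA word; higher means stronger. Published 9-mer scores were the minimum of their two constituent 8-mer scores, and the 8-mer values were recovered from those minima. A cutoff of 0.31 marks candidate binding sequences.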

PBM E-score, ≥ -0.0184:
TACTCCGA

PBM E-score, ≥ 0.0803:
AATTGGGT

PBM E-score, ≥ 0.0177:
TCTGACCA

PBM E-score, inactive:
CCGATTTA -0.0491
CTCATTGA 0.0245
AAGACCAC -0.0559
AACTCGAT 0.12
CAGAGTGA 0.0283
ACACTCCG 0.0179
AGGATGGC -0.13
ATAAGATA 0.144
CAGTGTGC -0.114
GTAGGCGA -0.00406
AAACCGTT 0.0731
AGCAGCTG -0.0728
CGAGAGTA 0.0274
CGACAGTC -0.0327
AGTATAAG 0.0772
CCAGAGAG -0.172
CGCTGGCC -0.289
GTAGCCAA 0.00468
AATAGGAA 0.0557
CCGCTATA -0.0672
TGCCGAAA -0.0384
AATCACCG 0.0868
AGAGGTTA -0.0109
ACGTGGGA -0.0931
GTACTCAA 0.0872
AATTCGAT 0.0966
AGGCTATC -0.0452
CCAGACGG -0.238
ACAACTCA 0.227
ATTGGAGA -0.114
AATTGGAA 0.0631
CGGTGCGA -0.14
CGATGCCC -0.137
AACAGGGT 0.0716
CCCCTGCC -0.265
ATGGATAG -0.0669
AGTTGCGC -0.06
ATAGACAA 0.275
CACGAGTA 0.101
AACTACTG 0.096
GGGGACAA 0.057
GAATACGA 0.136
TCACATGA 0.182
AAGTAACG 0.0695
GGGGGGGA -0.398
AAGTTAGT 0.0752
GGGGGTAA -0.208
AGGCGTTC -0.119
GTATGAAA 0.145
TATAGACA 0.298
ATTCGAGC -0.0541
GGATTGAA -0.00464
GATGAGGA -0.0442
ACGTTTAT 0.0633
AGCAGACG -0.128
GTCTTTGA -0.0404
CCACGATC 0.0343
CGCTGCCA -0.19
CCTGCGGA -0.128
CAACATCA 0.298
TAGGTACA 0.271
CAGATACA 0.292
GATAACGC -0.0177
AGGCCAGC -0.208
CTCAAGTA 0.152
ACCCCGGC -0.22
ACCCCCCC -0.409
ACCAAAAT 0.0493
CATGCATC 0.0576
CGATAACG -0.0766
AGCGCTCG -0.146
ACTCTGGG -0.162
CCTCGCAC -0.0533
CGACCCAG -0.124
CTTCTCAC -0.101
ACAACGAT 0.186
CAGGCCGA -0.13
CCCTCGGA -0.156
TCCGTAAA -0.0398
GTAGAGCA 0.0304
AGCCGGCG -0.278
ATCGCCCA -0.106
CTGACGTC -0.0596
AAACGCTC -0.101
CGTAGCAC 0.00405
TCGATGCA 0.0975
GAGAGATC 0.0319
AAATCGAC 0.0824
CTTCGGAC -0.0138
AGACAAGC 0.242
ATCATTGC 0.0874
CCACCGGA -0.107
ACAACCAC 0.225
GCGGCGAC -0.167
AGTTGGTG -0.0391
CCTCATAA 0.021
ACATGGCT 0.229
ATGGATTA 0.0621
CCTGTCCA 0.0374
CCAGTGAG -0.148
AATCGTCC 0.0139
TACGTCGA -0.0194
CCACCGCG -0.187
ACAAGGCT 0.212
CTAACATC 0.208
CAGAATAG 0.0182
ACGTCCTG -0.0739
GCCCGGAA -0.219
CTGGGATC -0.152
TAAAGCCA 0.00246
AAGGCGCC -0.16
CCAAGTCC -0.141
AAACGGAC -0.0481
GAGCCTGC -0.108
CTTAAGAA 0.0752
CTCATTCA 0.00411
CATTATAC 0.154
CCAGCCTC -0.203
ATGAGCCC -0.0983
GCGTTGGA -0.0829
ATGCAATG 0.0749
ATCGCTGC -0.159
GAGGCATC -0.258
AGACAGGA 0.134
CCGGGGGA -0.317
TGCAGCAA 0.0278
AGTTTCGG 0.0621
GAAACGCC -0.0373
CAGTTGCC -0.0665
AAATGGGT 0.00068
GCACAACC -0.0222
CAAATCTC 0.021
CTGATCTC -0.0515
ACCCTACT 0.0764
AAGGGGCA -0.155
GGGGTTTA -0.0962
CTTCCTTA 0.0568
GATGTTGA 0.254
CCCTGTGC -0.205
CAAGCTGA 0.031
CAATACTG 0.089
ATCTTTAC 0.139
GATTCTGA 0.0205
CTTGCAGC -0.11
AACGTAAG -0.0364
ATCGGATG 0.0211
GCGTACAC 0.217
AACTGACT 0.0473
CACCTACA 0.17
ATTAGATC 0.122
GCAAGCTA 0.00418
GGTCGAGA -0.144
ATGTCGAG 0.274
CGGTCCGC -0.22
ACCACAAG 0.0407
ATTGCGTG 0.03
ACGATCCG -0.043
ACTACAAA 0.256
TTAGCTAA 0.0617
GCACACAC 0.0659
GTCCACAA 0.0838
CCGCCTAC -0.103
ACCTAATG -0.0525
CCAAGAAC -0.0553
AGTTCAAT 0.0193
AAGTAATA 0.134
AGAGGATC -0.0232
TCCTGAGA -0.00828
TAATCGTA 0.155
CCCAAAAA -0.0679
ACCAGCGG -0.174
ACCTTGCA 0.00259
CCGTGATC -0.091
CTTGTTTA 0.254
ACTTTCCC -0.0936
AACGCGGT 0.0188
GTATGCCA -0.0778
ATGGCCAG -0.0226
TCAACGAA 0.0771
AAAGAGAA -0.1
ACCAACAA 0.156
CCCTTTCC -0.232
CCTCAAGA -0.0635
AGGTAACT 0.0502
GAAATATC 0.0839
GCCCAAAC -0.144
AGTATGTC 0.243
AAGCTTGA -0.0734
AAGTCAGA -0.0825
CACGGTCA 0.0659
ACCTACTC 0.0495
AGCCGGCC -0.235
CTTAACCC -0.154
ACTTGCAG -0.00481
CGCCAGTC -0.143
ATAAGCTA 0.0835
CGTAATTC 0.0236
AACTTATG 0.123
CACCCAAC -0.0696
ATTGCGTC -0.0334
ACGACGAA 0.0874
ACTCTACT 0.081
CCCCCAGA -0.337
AGAGAAGA -0.0577
TTGAAAAA 0.0864
AAAGTCTT 0.0137
CTCCTACC -0.143
TACCCGTA 0.0829
CAGCCTGG -0.164
ATATCGGA 0.0909
GTACGGAA 0.0512
CTAATGTC 0.163
ATATCCGC -0.0643
CAAAAAGG -0.0727

PBM E-score, active:
ACACGACA ≥ 0.386
TCATGTCA 0.391

PBM E-score, ≥ 0.114:
ATTATGGA

PBM E-score, ≥ 0.125:
CAATCTTA

PBM E-score, ≥ 0.00372:
AGCGAAAA

PBM E-score, ≥ 0.163:
TGATACCA

From the supplement of paper PMC3724861
